# The supplement of paper PMC8728848
# The list shows a part of the results.
# Experiments:
# Assay in all cases: glycan array binding signal (z-score within array); higher = stronger binding
# Conditions in all cases: glycan notation: IUPAC condensed, linker removed
# [1] = target: Neu5Ac(a2-6)Gal(b1-4)GlcNAc(b1-6)[Gal(b1-3)GlcNAc(b1-3)]Gal(b1-4)Glc
# Procedure, shortened: (§1)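 Glycan array data came from 3228 arrays in the Consortium for Functional Glycomics database, and only arrays with an available protein sequence were kept. Glycan names were put into IUPAC-condensed notation, and columns mapping to the same glycan were averaged. The binding signal is a within-array Z-score, averaged across arrays of one protein sequence run at different concentrations or buffers and across linkers. A negative Z-score can be read as non-binding.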
# [2] = target: Neu5Ac(a2-6)Gal(b1-4)GlcNAc(b1-6)[Gal(b1-3)]GalNAc
# Procedure, shortened: as §1
# [3] = target: Neu5Ac(a2-6)Gal(b1-4)GlcNAc6S
# Procedure, shortened: as §1
# Neu5Ac(a2-6)GalNAc = target: Neu5Ac(a2-6)GalNAc
# Procedure, shortened: as §1
# [4] = target: Neu5Ac(a2-6)GalNAc(b1-4)GlcNAc
# Procedure, shortened: as §1
# [5] = target: Neu5Ac(a2-6)GalNAc(b1-4)GlcNAc6S
# Procedure, shortened: as §1
# [6] = target: Neu5Ac(a2-6)GlcNAc(b1-4)GlcNAc
# Procedure, shortened: as §1
# [7] = target: Neu5Ac(a2-6)GlcNAc(b1-4)GlcNAc(b1-4)GlcNAc
# Procedure, shortened: as §1
# Neu5Ac(a2-8)Neu5Ac = target: Neu5Ac(a2-8)Neu5Ac
# Procedure, shortened: as §1
# [8] = target: Neu5Ac(a2-8)Neu5Ac(a2-3)Gal(b1-3)GalNAc(b1-4)[Neu5Ac(a2-3)]Gal(b1-4)Glc
# Procedure, shortened: as §1
# [9] = target: Neu5Ac(a2-8)Neu5Ac(a2-3)Gal(b1-3)GalNAc(b1-4)[Neu5Ac(a2-8)Neu5Ac(a2-3)]Gal(b1-4)Glc
# Procedure, shortened: as §1
# [10] = target: Neu5Ac(a2-8)Neu5Ac(a2-3)Gal(b1-4)Glc
# Procedure, shortened: as §1
# [11] = target: Neu5Ac(a2-8)Neu5Ac(a2-3)Gal(b1-4)GlcNAc
# Procedure, shortened: as §1
# [12] = target: Neu5Ac(a2-8)Neu5Ac(a2-3)[Gal(b1-3)GalNAc(b1-4)]Gal(b1-4)Glc
# Procedure, shortened: as §1
# [13] = target: Neu5Ac(a2-8)Neu5Ac(a2-3)[GalNAc(b1-4)]Gal(b1-4)Glc
# Procedure, shortened: as §1
# [14] = target: Neu5Ac(a2-8)Neu5Ac(a2-8)Neu5Ac
# Procedure, shortened: as §1
# [15] = target: Neu5Ac(a2-8)Neu5Ac(a2-8)Neu5Ac(a2-3)Gal(b1-4)Glc
# Procedure, shortened: as §1
# [16] = target: Neu5Ac(a2-8)Neu5Ac(a2-8)Neu5Ac(a2-3)[Gal(b1-3)GalNAc(b1-4)]Gal(b1-4)Glc
# Procedure, shortened: as §1
# [17] = target: Neu5Ac(a2-8)Neu5Ac(a2-8)Neu5Ac(a2-3)[GalNAc(b1-4)]Gal(b1-4)Glc
# Procedure, shortened: as §1
# [18] = target: Neu5Ac(a2-8)Neu5Ac(a2-8)Neu5Ac(a2-8)Neu5Ac(a2-3)[GalNAc(b1-4)]Gal(b1-4)Glc
# Procedure, shortened: as §1
# [19] = target: Neu5Ac(a2-8)Neu5Gc(a2-3)Gal(b1-4)GlcNAc
# Procedure, shortened: as §1
# [20] = target: Neu5Ac(b2-6)Gal(b1-4)GlcNAc
# Procedure, shortened: as §1
# Neu5Ac(b2-6)GalNAc = target: Neu5Ac(b2-6)GalNAc
# Procedure, shortened: as §1
# [21] = target: Neu5Ac9Ac(a2-3)Gal(b1-3)GlcNAc
# Procedure, shortened: as §1
# [22] = target: Neu5Ac9Ac(a2-3)Gal(b1-4)GlcNAc
# Procedure, shortened: as §1
# [23] = target: Neu5Ac9Ac(a2-6)Gal(b1-4)GlcNAc
# Procedure, shortened: as §1
# [24] = target: Neu5Gc(a2-3)Gal(b1-3)GlcNAc
# Procedure, shortened: as §1
# [25] = target: Neu5Gc(a2-3)Gal(b1-3)[Fuc(a1-4)]GlcNAc
# Procedure, shortened: as §1
# Neu5Gc(a2-3)Gal(b1-4)Glc = target: Neu5Gc(a2-3)Gal(b1-4)Glc
# Procedure, shortened: as §1
# [26] = target: Neu5Gc(a2-3)Gal(b1-4)GlcNAc
# Procedure, shortened: as §1
# [27] = target: Neu5Gc(a2-3)Gal(b1-4)GlcNAc(b1-3)Gal(b1-4)GlcNAc(b1-2)Man(a1-3)[Neu5Gc(a2-3)Gal(b1-4)GlcNAc(b1-3)Gal(b1-4)GlcNAc(b1-2)Man(a1-6)]Man(b1-4)GlcNAc(b1-4)GlcNAc
# Procedure, shortened: as §1
# [28] = target: Neu5Gc(a2-3)Gal(b1-4)[Fuc(a1-3)]GlcNAc
# Procedure, shortened: as §1
# [29] = target: Neu5Gc(a2-6)Gal(b1-4)GlcNAc
# Procedure, shortened: as §1
# Neu5Gc(a2-6)GalNAc = target: Neu5Gc(a2-6)GalNAc
# Procedure, shortened: as §1
# [30] = target: Neu5Gc(a2-8)Neu5Ac(a2-3)Gal(b1-4)GlcNAc
# Procedure, shortened: as §1
# [31] = target: Neu5Gc(a2-8)Neu5Gc(a2-3)Gal(b1-4)GlcNAc
# Procedure, shortened: as §1
# [32] = target: Neu5Gc(a2-8)Neu5Gc(a2-3)Gal(b1-4)GlcNAc(b1-3)Gal(b1-4)GlcNAc
# Procedure, shortened: as §1
# [33] = target: Neu5Gc(a2-8)Neu5Gc(a2-6)Gal(b1-4)GlcNAc
# Procedure, shortened: as §1
# [34] = target: Neu5Gc(b2-6)Gal(b1-4)GlcNAc
# Procedure, shortened: as §1
binder,measurement,setting,value
Mg1lysM (Mycosphaerella graminicola) (protein) QRNPITITPQFDCGATNSQQYVARSGDTLTKIAQEIYHDVVGVCDIARANNLADPNRIDAGTPYTIPINCQTYDRNSCL,glycan array binding signal (z-score),[1],-0.052
same,glycan array binding signal (z-score),[2],-0.072
same,glycan array binding signal (z-score),[3],-0.062
same,glycan array binding signal (z-score),Neu5Ac(a2-6)GalNAc,-0.077
same,glycan array binding signal (z-score),[4],0.004
same,glycan array binding signal (z-score),[5],-0.083
same,glycan array binding signal (z-score),[6],-0.057
same,glycan array binding signal (z-score),[7],4.06
same,glycan array binding signal (z-score),Neu5Ac(a2-8)Neu5Ac,-0.063
same,glycan array binding signal (z-score),[8],-0.041
same,glycan array binding signal (z-score),[9],-0.048
same,glycan array binding signal (z-score),[10],-0.058
same,glycan array binding signal (z-score),[11],-0.068
same,glycan array binding signal (z-score),[12],-0.07
same,glycan array binding signal (z-score),[13],-0.067
same,glycan array binding signal (z-score),[14],-0.056
same,glycan array binding signal (z-score),[15],-0.069
same,glycan array binding signal (z-score),[16],-0.06
same,glycan array binding signal (z-score),[17],-0.072
same,glycan array binding signal (z-score),[18],-0.052
same,glycan array binding signal (z-score),[19],-0.052
same,glycan array binding signal (z-score),[20],-0.081
same,glycan array binding signal (z-score),Neu5Ac(b2-6)GalNAc,-0.076
same,glycan array binding signal (z-score),[21],-0.091
same,glycan array binding signal (z-score),[22],-0.075
same,glycan array binding signal (z-score),[23],-0.064
same,glycan array binding signal (z-score),[24],-0.04
same,glycan array binding signal (z-score),[25],-0.055
same,glycan array binding signal (z-score),Neu5Gc(a2-3)Gal(b1-4)Glc,-0.07
same,glycan array binding signal (z-score),[26],-0.094
same,glycan array binding signal (z-score),[27],-0.08
same,glycan array binding signal (z-score),[28],-0.038
same,glycan array binding signal (z-score),[29],-0.038
same,glycan array binding signal (z-score),Neu5Gc(a2-6)GalNAc,-0.091
same,glycan array binding signal (z-score),[30],-0.069
same,glycan array binding signal (z-score),[31],-0.086
same,glycan array binding signal (z-score),[32],-0.075
same,glycan array binding signal (z-score),[33],-0.072
same,glycan array binding signal (z-score),[34],-0.078
